Data on 18 sequences can be found in article PMC12820563, “FoxP3 forms a head-to-head dimer in vivo and stabilizes its multimerization on adjacent microsatellites”.

This is one part of the list.

This experiment addresses T1, MBP-FoxP1dN (Mus musculus, UniProt P58462 326-579).
T1 sequence: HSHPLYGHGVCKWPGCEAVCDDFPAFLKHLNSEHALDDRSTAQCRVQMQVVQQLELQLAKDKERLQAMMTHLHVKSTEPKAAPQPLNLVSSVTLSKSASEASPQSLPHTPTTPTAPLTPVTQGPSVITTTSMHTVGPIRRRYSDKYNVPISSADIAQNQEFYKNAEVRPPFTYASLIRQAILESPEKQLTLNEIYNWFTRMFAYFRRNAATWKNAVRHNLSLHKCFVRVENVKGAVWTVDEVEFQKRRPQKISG
Put plainly: PD-seq (MBP pull-down with sequencing); 20 mM Tris-HCl pH 7.5, 100 mM NaCl, 1.5 mM MgCl2, 0.4 uM protein, 0.1 uM dsDNA library, 30 min, room temperature, amylose pull-down; high values mean tight binding. Conditions: protein: recombinant; tags: His6-MBP; chain copies: 2; dsDNA, one strand shown. In short, it runs like this: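 Binding is the reads-per-million enrichment of pull-down relative to input, pooled across replicates. For this, 0.4 µM His6-MBP-tagged mouse FoxP3 or FoxP1 fragment lacking the N-terminus, made in E. coli, was incubated with 0.1 µM Klenow-filled double-stranded degenerate DNA library for 30 min at room temperature in Tris pH 7.5 buffer with NaCl and MgCl2. Complexes bound to amylose resin were washed three times before proteinase K released the DNA for PCR barcoding and Illumina sequencing.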
In the case of “GATGATTGTTCTCCCAGCTGATGAATTGCCGCATTCGAGTAAACAAATTTTCCTAATCTTTCTGTTCAAGCGCCATCTAC”, the binding signal was 1.26 RPM ratio (pull-down/input). Next, “GATGATTGTTCTCCCAGCTGATGAATTACCATGGTCGAGTAAACAAATTTTCCTAATCTTTCTGTTCAAGCGCCATCTAC”: 0.846 RPM ratio (pull-down/input). Regarding “GATGATTGTTCTCCCAGCTGATGAATTCCACCCTTCGAGTAAACAAATTTTCCTAATCTTTCTGTTCAAGCGCCATCTAC”, the binding signal is 0.773 RPM ratio (pull-down/input). As for “GATGATTGTTCTCCCAGCTGATGAATTATTGGACTCGAGTAAACAAATTTTCCTAATCTTTCTGTTCAAGCGCCATCTAC”, the figure is 0.979 RPM ratio (pull-down/input); as for “GATGATTGTTCTCCCAGCTGATGAATTCGAGAACTCGAGTAAACAAATTTTCCTAATCTTTCTGTTCAAGCGCCATCTAC”, 0.811 RPM ratio (pull-down/input). Next, “GATGATTGTTCTCCCAGCTGATGAATTAGAATAATCGAGTAAACAAATTTTCCTAATCTTTCTGTTCAAGCGCCATCTAC”: 1.24 RPM ratio (pull-down/input). As for “GATGATTGTTCTCCCAGCTGATGAATTTTAACAATCGAGTAAACAAATTTTCCTAATCTTTCTGTTCAAGCGCCATCTAC”, the figure is 1.32 RPM ratio (pull-down/input); as for “GATGATTGTTCTCCCAGCTGATGAATTTTGGAATTCGAGTAAACAAATTTTCCTAATCTTTCTGTTCAAGCGCCATCTAC”, 0.924 RPM ratio (pull-down/input).

For the sequence “GATGATTGTTCTCCCAGCTGATGAATTTAGTCGTTCGAGTAAACAAATTTTCCTAATCTTTCTGTTCAAGCGCCATCTAC”, the binding signal was 0.97 RPM ratio (pull-down/input). For “GATGATTGTTCTCCCAGCTGATGAATTCCATCTGTCGAGTAAACAAATTTTCCTAATCTTTCTGTTCAAGCGCCATCTAC”, the binding signal was 0.871 RPM ratio (pull-down/input).

“GATGATTGTTCTCCCAGCTGATGAATTGTACCTATCGAGTAAACAAATTTTCCTAATCTTTCTGTTCAAGCGCCATCTAC”: the binding signal was 0.989 RPM ratio (pull-down/input). As for “GATGATTGTTCTCCCAGCTGATGAATTTTACGGATCGAGTAAACAAATTTTCCTAATCTTTCTGTTCAAGCGCCATCTAC”, the figure is 0.879 RPM ratio (pull-down/input); as for “GATGATTGTTCTCCCAGCTGATGAATTGAGCCCGTCGAGTAAACAAATTTTCCTAATCTTTCTGTTCAAGCGCCATCTAC”, 0.741 RPM ratio (pull-down/input); as for “GATGATTGTTCTCCCAGCTGATGAATTCGCCTCGTCGAGTAAACAAATTTTCCTAATCTTTCTGTTCAAGCGCCATCTAC”, 0.82 RPM ratio (pull-down/input). For “GATGATTGTTCTCCCAGCTGATGAATTGAAAAGGTCGAGTAAACAAATTTTCCTAATCTTTCTGTTCAAGCGCCATCTAC”, the binding signal was 0.796 RPM ratio (pull-down/input). As for “GATGATTGTTCTCCCAGCTGATGAATTATCGCGATCGAGTAAACAAATTTTCCTAATCTTTCTGTTCAAGCGCCATCTAC”, the figure is 0.929 RPM ratio (pull-down/input); as for “GATGATTGTTCTCCCAGCTGATGAATTATCGTGGTCGAGTAAACAAATTTTCCTAATCTTTCTGTTCAAGCGCCATCTAC”, 0.937 RPM ratio (pull-down/input); as for “GATGATTGTTCTCCCAGCTGATGAATTTGCGCGTTCGAGTAAACAAATTTTCCTAATCTTTCTGTTCAAGCGCCATCTAC”, 1.12 RPM ratio (pull-down/input).
